In PubChem BioAssay AID588855 (National Center for Advancing Translational Sciences (NCATS), 2011):
Among all 410,000 compounds or so, about 5,000 (1.2%) were called active. Inconclusive results, whose numbers are uncertain, are shown with a selection of clear calls. Calls follow the shape of the dose curve; as a rule, active = well fitted inhibition curve with a large enough effect; inconclusive = small, poorly fitted or top-dose-only effect; inactive = no such curve, though single readings can be large or run the other way. Where the call is inconclusive, the potency comes from a doubtful curve fit.

assay: qHTS for Inhibitors of TGF-b; conditions: HepG2 CAGA-GFP TGF-b/SMAD3 reporter, GFP fluorescence, 18 h, TGF-beta stimulated, 500 pg/mL final; series mostly up to 46.1 µM; also: nearly all actives have a fitted effect of over 65% in size
Summary of the method: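 Read-out: total well GFP (ex488/em500-530) summed from mean per-cell fluorescence. Cells: HEPG2 CAGA-GFP, 1% FBS DMEM, 18 h at 37 degrees C with 500 pg/mL final TGF-beta. Unstimulated wells served as the full-inhibition control; stimulated DMSO wells = 0%.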
Potency is read from the fitted curve at half-maximal effect; tags tell the direction and shape of the fitted curve.

Row | Compound | Potency
1 | Cc1ccc(NC(=S)N2CCN(C3CCCCC3)CC2)cc1 | inactive
2 | O=C(NCCc1ccc(Cl)cc1)c1ccc(CSCc2cccc(Cl)c2)o1 | inconclusive: 20 µM [inhibitor, single point]
3 | O=C(CSc1nc(-c2ccccc2)nc2ccccc12)Nc1nccs1 | inactive
4 | COc1ccc(NC(=O)CNC(=O)c2nn(-c3ccc(OC)c(Cl)c3)c(=O)c3ccccc23)c(OC)c1 | inactive
5 | COc1cc(C(=O)CCN2CCC(c3ccccc3)C2)cc(OC)c1OC (configuration not stated) | inconclusive: 11.2 µM [inhibitor, partial curve, poor fit]
6 | Cc1cccc(OCCCn2c(CCNC(=O)C3CCCCC3)nc3ccccc32)c1 | active: 22.4 µM
7 | Cc1cc2cc(CN(CC3CCCO3)C(=S)NCc3ccco3)c(=O)[nH]c2cc1C (configuration not stated) | inconclusive: 17.8 µM [inhibitor, partial curve, poor fit]
8 | Cc1ccc(O)c(NC(=S)NC(=O)COc2ccc(Br)cc2)c1 | inconclusive: 11.2 µM [inhibitor, partial curve]
9 | COc1cccc(/C=N/Nc2ccc([N+](=O)[O-])cn2)c1O | active: 0.794 µM
10 | CC(C)(C)c1ccc(C(=O)C[N+]2(C)CCCc3ccccc32)cc1 (configuration not stated) | inactive
11 | CCOc1ccc(-c2cc(C(=O)NCCc3ccc(OC)c(OC)c3)c3c(-c4ccc(F)cc4)[nH]nc3n2)cc1 | inconclusive: 0.398 µM [inhibitor, full curve, poor fit]
12 | COc1cccc(-c2nc(SCC(=O)Nc3ccc4c(c3)OCCO4)c(-c3ccc(C)cc3)[nH]2)c1 | inconclusive: 35.5 µM [inhibitor, single point]
13 | O=C(Nc1ccccc1)c1cc(C2CCCCN2C(=O)c2ccc3c(c2)CCO3)on1 (configuration not stated) | inactive
14 | COc1ccc(C(=O)NN2C(=O)C3C(c4ccccc4)C=CC(c4ccccc4)C3C2=O)cc1 (configuration not stated) | inconclusive: 11.2 µM [inhibitor, partial curve, poor fit]
15 | CCCc1cc(C(=O)N2CCCC(Cc3cccc(Cl)c3)(C(=O)OCC)C2)n(C)n1 (configuration not stated) | inconclusive: 2.82 µM [inhibitor, full curve]
16 | O=C(CCS(=O)(=O)c1ccccc1)Nc1nc(-c2cccs2)cs1 | inconclusive: 35.5 µM [inhibitor, single point]
17 | Cc1cccc(-n2cnc3cc(C(=O)N4CCc5ccccc54)ccc32)c1 | inconclusive: 35.5 µM [inhibitor, single point]
18 | Cc1ccc(OCC(=O)NCCNC(=O)c2cnccn2)cc1C | inactive
19 | Cc1ccc(-c2cc(C(=O)N/N=C/c3ccccc3O)n[nH]2)o1 | inconclusive: 12.6 µM [inhibitor, single point]
20 | C=CCN=C1CC(C)(C)CC(=O)/C1=C(\O)CCCN1C(=O)c2ccccc2C1=O | inconclusive: 35.5 µM [inhibitor, single point]
21 | CS(=O)(=O)N(Cc1ccccc1)c1ccc(C(=O)Nc2ccc(Cl)cc2)cc1 | inconclusive: 22.4 µM [inhibitor, single point]
22 | COC(=O)c1sccc1S(=O)(=O)N(CC(=O)Nc1ccccc1)c1ccccc1 | inconclusive: 17.8 µM [inhibitor, single point]
23 | CC(=O)c1ccc(S(=O)(=O)N2CCN(C(=O)CSc3ccc(C)c(C)c3)CC2)cc1 | inconclusive: 17.8 µM [inhibitor, single point]

Row | Compound | Potency
24 | O=C(N/C=N/OCc1ccc(Cl)cc1Cl)NOCc1ncc(C(F)(F)F)cc1Cl | inconclusive: 22.4 µM [inhibitor, single point]
25 | Cc1cc(NS(=O)(=O)c2ccc(NS(=O)(=O)c3ccc(Br)cc3)cc2)no1 | inconclusive: 22.4 µM [inhibitor, single point]
26 | OC(c1ccc(F)cc1)(C1CCCCC1)C(CN1CCOCC1)c1ccccc1 (configuration not stated) | inconclusive: 12.6 µM [inhibitor, partial curve]
27 | CCN1C=C(Cc2cccs2)C2=C(C1)C(c1cccs1)C(C#N)=C(N)O2 (configuration not stated) | inconclusive: 15.8 µM [inhibitor, single point]
28 | Fc1ccccc1CNCCC(Cc1ccccc1)c1ccc2c(c1)OCO2 (configuration not stated) | inconclusive: 35.5 µM [inhibitor, single point]
29 | CCNC(=S)N/N=C1\C(=O)c2cccc3cccc1c23 | inactive
30 | COc1cc(C2Nc3ccccc3-c3nnc(SCc4ccc(C)cc4)nc3O2)cc(OC)c1O (configuration not stated) | inactive
31 | Cc1ccc(C(=O)C2Oc3ccccc3C3CC(c4ccc(C)cc4)=NN23)cc1 (configuration not stated) | inconclusive: 6.31 µM [inhibitor, single point]
32 | COC(=O)c1cc(-c2ccc(Cl)cc2Cl)n[nH]1 | inactive
33 | COc1cccc(C(=O)NC(=S)Nc2nnn(C)n2)c1 | inconclusive: 20 µM [inhibitor, single point]
34 | CCCCN(CCCC)C(=O)C1(P(=O)(c2ccccc2)c2ccccc2)CCC1 | inconclusive: 14.1 µM [inhibitor, partial curve, poor fit]
35 | CN1CCN(c2ccc(NC(=O)COc3ccc4ccccc4c3)cc2)CC1 | inactive
36 | CC(C)C1C(=O)N(Cc2cn(CC3CCCCC3)nn2)CCS(=O)(=O)N1Cc1ccc(-c2cccc(CO)c2)cc1 (configuration not stated) | inconclusive: 17.8 µM [inhibitor, partial curve, poor fit]
37 | CCOC(=O)C1=C(CN2CCc3ccccc32)NC(=O)NC1c1ccc(Cl)cc1 (configuration not stated) | inconclusive: 22.4 µM [inhibitor, single point]
38 | O=C1COc2ccc(C(=O)CCl)cc2N1 | inconclusive: 35.5 µM [inhibitor, single point]
39 | COc1ccc(-c2oc3cccnc3c2/C=C/c2ccc(OC)c(OC)c2)cc1 | inconclusive: 4.47 µM [inhibitor, partial curve, poor fit]
40 | COc1cc(/C=C(\C#N)c2nc3ccccc3[nH]2)cc(Br)c1OCc1ccccc1 | active: 11.2 µM
41 | O=C(Nc1cccs1)Nc1ccccc1Br | inconclusive: 11.2 µM [inhibitor, partial curve]
42 | Cc1ccc(S(=O)(=O)N(C)C)cc1NC(=O)CSc1nc2ccccc2[nH]1 | inactive
43 | CCCCCCCCNCCS(=O)(=O)NCc1ccccc1 | inconclusive: 35.5 µM [inhibitor, single point]
44 | N#CCSc1nc2ccccc2c2nc3ccccc3n12 | inconclusive: 2.82 µM [inhibitor, partial curve, poor fit]
45 | Cc1sc2nc(CSc3cccc(C(F)(F)F)c3)[nH]c(=O)c2c1C | inconclusive: 35.5 µM [inhibitor, single point]
46 | CCn1cc(Br)c(C(=O)Nc2sc3c(c2C(N)=O)CCCC3)n1 | inactive

Row | Compound | Potency
47 | Cc1cc(NC(=O)c2cccn2-c2nnc(N3CCCCC3)s2)ccc1Br | active: 8.91 µM
48 | O=C(OCCN1C(=O)c2cccc3c(N4CCOCC4)ccc(c23)C1=O)c1cccc(Cl)c1 | inactive
49 | O=c1[nH]c(SCc2nc3ccccc3n2Cc2ccccc2)nc2ccccc12 | inactive
50 | CCCC(=O)c1ccc(N2CCN(C(=O)c3ccccc3)CC2)c(F)c1 | inconclusive: 15.8 µM [inhibitor, single point]
51 | Cc1ccc(NC(=O)C2COc3ccccc3O2)cc1S(=O)(=O)N1CCCCC1 (configuration not stated) | inconclusive: 25.1 µM [inhibitor, single point]
52 | CC(=O)N1CCc2c(sc3c2c(=O)n(-c2ccc(C)cc2)c(=O)n3Cc2ccccc2C)C1 | inactive
53 | Cc1ccc(Cn2nnc3c(=O)[nH]c(C4CCN(C(=O)Cc5cccs5)CC4)nc32)cc1 | inconclusive: 35.5 µM [inhibitor, single point]
54 | Cc1ccc2oc(=O)n(CCNC(=O)Nc3ccc(Cl)cc3)c2c1 | inconclusive: 0.316 µM [inhibitor, full curve, poor fit]
55 | Cc1cc(NC(=O)CN2CCC(n3nnc4cc(C(F)(F)F)ccc43)CC2)no1 | inactive
56 | O=C(NC1CCCC1)c1nc2c(nnn2Cc2cccc(Cl)c2)c(=O)[nH]1 | inconclusive: 35.5 µM [inhibitor, single point]
57 | CC(OC(=O)c1cc(Br)ccc1O)C(=O)Nc1ccc(S(=O)(=O)N2CCCC2)cc1 (configuration not stated) | inconclusive: 28.2 µM [inhibitor, single point]
58 | CN(C)c1cccc2c(/C=N/O)ccc(N(C)C)c12 | inactive
59 | Cc1ccc(C)c(N2CCN(C(=O)c3cc(S(=O)(=O)N4CCOCC4)cn3C)CC2)c1 | inactive
60 | COc1cc(O)cc2cc3c(c(O)c12)C(=O)CC(C)(O)O3 (configuration not stated) | inconclusive: 15.8 µM [inhibitor, single point]
61 | CCN(CC)c1ccc(N)cc1 | inconclusive: 15.8 µM [inhibitor, partial curve]
62 | COc1ccc(S(=O)(=O)NCC(c2ccc(N(C)C)cc2)N2CCc3ccccc32)cc1F (configuration not stated) | inactive
63 | CC1(C)OC2OC(COC(=O)c3ccccc3)C3OC(C)(C)OC3C2O1 (configuration not stated) | inconclusive: 11.2 µM [inhibitor, partial curve]
64 | O=C(CSc1nnnn1-c1ccc2c(c1)OCCO2)Nc1nc2c(s1)CCCC2 | inconclusive: 22.4 µM [inhibitor, single point]
65 | CC(C)CC(=O)Nc1ccc(N2CCN(S(C)(=O)=O)CC2)cc1 | inconclusive: 20 µM [inhibitor, single point]
66 | CCOC(=O)c1ccccc1NC(=O)COC(=O)CC(C)(C)CC1=NS(=O)(=O)c2ccccc2N1 | inconclusive: 0.158 µM [inhibitor, partial curve, poor fit]
67 | COc1ccc(OC)c(NC(=O)N2CC3CCCN3c3ccccc32)c1 (configuration not stated) | inconclusive: 35.5 µM [inhibitor, single point]
